Measurements: PubChem BioAssay AID1454 (National Center for Advancing Translational Sciences (NCATS), 2008)
Among all 130,000 compounds or so, about 550 (0.42%) were called active. Inconclusive results (about 4%) are left out. Calls come from the whole dose curve; as a rule, active = well fitted inhibition curve with a large enough effect; inconclusive = small, poorly fitted or top-dose-only effect, or effect the other way; inactive = flat fitted curve, though single readings scatter. The entries are a selection whose mix differs from that of the whole data set.

Assay: qHTS Assay for Inhibitors of the ERK Signaling Pathway using a Homogeneous Screening Assay; Stimulation with EGF; note: nearly all actives have a fitted effect of over 55% in size;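 for activity change, negative = inhibition: plate controls were stimulated vehicle wells for no effect and unstimulated vehicle basal for full effect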
Conditions: HEK293-V1b, EGF-stimulated phospho-ERK AlphaScreen; activity change, negative = inhibition: at the top concentration
From the text: NIH Chemical Genomics Center [NCGC]
NIH Molecular Libraries Screening Centers Network [MLSCN]
Assay Submitter (PI): Dr. Wei Zheng, NCGC/NIH
The Ras/extracellular-signal-regulated kinase (ERK) mitogen activated protein (MAP) kinase signaling pathway (ERK1/2 cascade) plays a key role in transmitting signals from the cell surface to the nucleus (Nishida and Gotoh 1993; Chang and Karin, 2001). The cascade is initiated by the small G-protein Ras, which recruits Raf from the cytosol, where activation occurs. Alternatively, this pathway can be activated by elevating intracellular cAMP, or by activation of a receptor tyrosine kinase as epidermal growth factor receptor.
Activation of the ERK pathway is essential in increased cell division and cell survival. Sustained and constitutive activation of the ERK pathway, however, has been linked to uncontrolled cell proliferation, increased cell survival, and tumor progression. Thus, the ERK has been as an attractive target for cancer chemotherapy in the past few years (Sebolt-Leopold and Herrera, 2004). Given its physiological and pathological importance, assessment of ERK phosphorylation has been broadly performed in both basic research and drug discovery. Most assays for the measurement of ERK phosphorylation use the antibody-based detection methods, such as western blot and ELISA. These assays require multiple reagent additions with cell wash steps and are not suitable for high throughout screening.
The current cell-based ERK phosphorylation assay was performed using AlphaScreen platform. AlphaScreen is a two bead-based proximity-dependent chemical energy transfer luminescent assay platform. The assay reagents (ERK SureFire(TM) kit) were supplied from TGR BioSciences (Australia). In the presence of specific antibodies, phosphorylated ERK will bring "donor" and "acceptor" beads to a proximity range (<200 nm), and subsequently lead a chemical luminescent reaction upon exciting donor beads with 680 nm laser. To exclude the assay-related false positives, we used a biotinylated rabbit IgG to perform counter-screen. The biotinylated antibody mimics the phosphorylated ERK1/2 for bringing streptavidin coated beads and protein-A coated beads to a proximity range for the AlphaScreen detection.
NCGC Assay Protocol Summary:
HEK293 cells stably expressing type-1 vasopressin receptor (V1b) were maintained in DMEM medium (Invitrogen, Carlsbad, CA) at 37C under a humidified atmosphere containing 5% CO2 and 95% air. The medium contained 10% FBS, 2 mM L-glutamine, non-essential amino acid, pyruvate and 50 U/ml penicillin and 50 ug/ml streptomycin (Invitrogen). The aliquots of frozen cells were stored at -135C and used for the compound screening. All compounds were screened as titrations from 0.6 nM to 46 uM final concentration. Epidermal growth factor (EGF) was used to stimulate the ERK phosphorylation pathway. The ERK phosphorylation in cells was determined using an AlphaScreen assay kit provided by […]. Data were normalized to the controls for basal activity (DMSO only) and 100% activation (25 nM EGF). AC50 values were determined from concentration-response data modeled with the standard Hill equation.
(1) Seed 4 ul/well of resuspended frozen HEK293 cells containing 2000 cells in white 1536-well plates for overnight with 1% FBS at 37C under a humidified atmosphere containing 5% CO2 and 95% air.
(2) Add 23 nL compounds in DMSO solution. The final titration was 0.6 nM to 46 uM.
(3) Incubate at 37C for 30 min.
(4) Dispense 0.5uL EGF (25 nM in final)
(5) Incubate at 37C for 5 min.
(6) Dispense 0.5uL of 1:2 diluted 5x lysis buffer.
(7) Incubate at 37C for 10 min.
(8) Dispense 1.5uL of mixture of activation buffer and reaction buffer with AlphaScreen beads (streptavidin donor beads and protein-A acceptor beads, 10 ng/well for each).
(9) Incubate at room temperature for 5 hr.
(10) Detect the assay plate in an EnVision plate reader (PerkinElmer) using the AlphaScreen detection mode.
[…]
Potency is the fitted concentration of half-maximal effect.

SMILES | activity change, negative = inhibition | Potency
c1ccc(-c2ccc(C(c3ccccc3)n3ccnc3)cc2)cc1 (configuration not stated) | inactive: 5.69% | –
COc1cc(N)c(Cl)cc1C(=O)N[C@@H]1CN2CCC1CC2 | inactive: 0.22% | –
COc1ccc(OC)c([C@H](O)[C@H](C)N)c1 | inactive: 2.9% [at 25.7 µM] | –
Clc1ccc(CO[C@@H](Cn2ccnc2)c2ccc(Cl)cc2Cl)cc1 | inactive: -5.19% [at 25.7 µM] | –
CCCN(CCC)C1Cc2cc(OC)c(OC)cc2C1 | inactive: -6.41% | –
CNc1ccc2oc(C[C@H]3O[C@]4(CC[C@H]3C)O[C@H]([C@H](C)C(=O)c3ccc[nH]3)[C@H](C)C[C@H]4C)nc2c1C(=O)O | inactive: -15.4% | –
COC(=O)N1CCN(C(=O)Cc2ccc(Cl)c(Cl)c2)C(CN2CCCC2)C1 (configuration not stated) | inactive: -0.516% | –
Clc1ccc(CS[C@@H](Cn2ccnc2)c2ccc(Cl)cc2Cl)cc1 | inactive: 2.29% [at 25.7 µM] | –
O=C(O)CNC(=O)C(CS)Cc1ccccc1 (configuration not stated) | inactive: 8.48% | –
C[C@H](CCC(=O)O)[C@H]1CC[C@@H]2[C@H]3CC[C@H]4C[C@@H](O)CC[C@@]4(C)[C@H]3CC[C@]21C | inactive: 6.26% [at 25.7 µM] | –
Cc1ccc(/C=C2\C(=O)NC(=S)N(c3ccccc3F)C2=O)s1 | – | active: 20 µM
Cc1nc(-c2ccc(-c3ccc(C(=O)N4CCc5cc6c(cc54)C4(CCN(C)CC4)CO6)cc3)c(C)c2)no1 | inactive: 9.49% | –
C#CCN(C)[C@@H](C)Cc1ccccc1 | inactive: -8.79% [at 25.7 µM] | –
Clc1ccc(COC(Cn2ccnc2)c2ccc(Cl)cc2Cl)cc1 (configuration not stated) | – | active: 28.2 µM
CCCCCCCCCOc1ccc2[nH]cc(CCN)c2c1 | inactive: -6.37% | –
CC(=O)[C@H]1CCC2C3CC[C@H]4C[C@H](O)CC[C@]4(C)C3CC[C@@]21C (some centres not stated) | inactive: 13.1% | –
O=C(CCCN1CCC2(CC1)C(=O)NCN2c1ccccc1)c1ccc(F)cc1 | – | inactive
Cc1cc(-c2n[nH]c(=S)n2-c2ccc(C)c(C)c2)no1 | – | active: 3.98 µM
Clc1ccc(COC(Cn2ccnc2)c2ccc(Cl)cc2Cl)c(Cl)c1 (configuration not stated) | inactive: 6.98% [at 25.7 µM] | –
COc1ccc(OC)c(C(O)C(C)N)c1 (configuration not stated) | – | inactive
OCC[n+]1c2ccccc2nc2ccc(N3CCOCC3)cc21 | – | active: 14.1 µM

SMILES | activity change, negative = inhibition | Potency
Brc1c(NC2=NCCN2)ccc2nccnc12 | – | inactive
O=c1c(O)c(-c2ccc(O)c(O)c2)oc2cc(O)cc(O)c12 | – | inactive
CCNC(=O)[C@@H]1O[C@@H](n2cnc3c(N)ncnc32)[C@H](O)[C@H]1O | inactive: -13.6% | –
Cc1cc(O)c2c(c1)C(=O)c1cc(O)cc(O)c1C2=O | inactive: -8.43% | –
CC(=O)N1CCN(c2ccc(OC[C@@H]3CO[C@@](Cn4ccnc4)(c4ccc(Cl)cc4Cl)O3)cc2)CC1 | inactive: 5.81% [at 25.7 µM] | –
C#CCN(C)[C@H](C)Cc1ccccc1 | inactive: -6.24% | –
CCCSc1ccc2nc(NC(=O)OC)[nH]c2c1 | – | inactive
Cc1cc2c(C(C)C)c(O)c(O)c(C=O)c2c(O)c1-c1c(C)cc2c(C(C)C)c(O)c(O)c(C=O)c2c1O | – | inactive
CC(=O)[C@@H]1CC[C@@H]2[C@@H]3CCC4=CC(=O)CC[C@@]4(C)[C@H]3CC[C@]21C | inactive: -6.64% [at 25.7 µM] | –
Cc1c2ccncc2c(C)c2c1[nH]c1ccccc12 | – | inactive
O=C1NC(=O)N(CCC2=CCCCC2)C(=O)/C1=C/c1cccs1 | inactive: -13.9% [at 57.5 µM] | –
CCCCC/C=C\C/C=C\C/C=C\C/C=C\CCCC(=O)Nc1ccc(O)cc1 | inactive: 3.31% | –
CCNC(=O)[C@H]1O[C@@H](n2cnc3c(N)ncnc32)[C@H](O)[C@@H]1O | – | active: 8.91 µM
OCCN1CCN(CCCN2c3ccccc3Sc3ccc(C(F)(F)F)cc32)CC1 | – | inactive
COC(=O)N1CCN(C(=O)Cc2ccc(Cl)c(Cl)c2)[C@H](CN2CCCC2)C1 | inactive: -1.52% | –
CCC(COC(=O)c1cc(OC)c(OC)c(OC)c1)(c1ccccc1)N(C)C (configuration not stated) | inactive: -16.8% | –
COC(=O)C1=C(C)NC(C)=C(C(=O)OC)C1c1ccccc1[N+](=O)[O-] | – | inactive
CC[C@H]1CN2CCc3cc(OC)c(OC)cc3[C@@H]2C[C@@H]1C[C@H]1NCCc2cc(OC)c(OC)cc21 | inactive: -9.59% [at 57.5 µM] | –
Cc1ccc(N2C(=O)NC(=O)/C(=C/C=C/c3ccco3)C2=O)cc1 | inactive: 0.485% | –
Fc1ccc(C(OCCN2CCN(CCCc3ccccc3)CC2)c2ccc(F)cc2)cc1 | – | inactive
COc1ccc(Cc2nccc3cc(OC)c(OC)cc23)cc1OC | – | inactive

SMILES | activity change, negative = inhibition | Potency
COc1ccc2c3c([nH]c2c1)C(C)=NCC3 | – | inactive
CCC1CN2CCc3cc(OC)c(OC)cc3C2CC1CC1NCCc2cc(OC)c(OC)cc21 (configuration not stated) | inactive: 1.42% | –
COc1ccc2c(c[n+](C)c3c4cc5c(cc4ccc23)OCO5)c1OC | – | active: 12.6 µM
CC(=O)C1CCC2C3CCC4=CC(=O)CC[C@@]4(C)C3CC[C@]12C (some centres not stated) | inactive: 3.72% | –
Nc1ccncc1 | – | inactive
C[C@@H]1OC(OC2C(OC3CC[C@@]4(C)C5CC=C6C7CC(C)(C)CC[C@@]7(C(=O)O)CCC6(C)C5(C)CCC4[C@]3(C)CO)OCC(O)C2O)C(O)C(O)C1O (some centres not stated) | – | active: 28.2 µM
Clc1ccc(CSC(Cn2ccnc2)c2ccc(Cl)cc2Cl)cc1 (configuration not stated) | inactive: -12.7% [at 57.5 µM] | –
CC(=O)N1CCN(c2ccc(OC[C@H]3CO[C@](Cn4ccnc4)(c4ccc(Cl)cc4Cl)O3)cc2)CC1 | inactive: -0.393% | –
COC(=O)[C@@]1(Cc2ccc(F)cc2)[C@H]2c3cc(C(=O)N(C)C)[nH]c3C[C@H]2CN1C(=O)c1ccccc1 | inactive: 3.34% | –
c1ccc(-c2cc(-c3ccccc3)[n+](-c3ccccc3)c(-c3ccccc3)c2)cc1 | – | active: 22.4 µM
CCNC(=O)[C@H]1O[C@@H](n2cnc3c(N)ncnc32)[C@H](O)[C@H]1O | inactive: 5.97% | –
O=C1NC(=O)C(=Cc2ccccc2Oc2ccc(F)cc2)C(=O)N1 | – | active: 3.98 µM
Cc1cc2c(s1)Nc1ccccc1N=C2N1CCN(C)CC1 | inactive: -24.4% | –
CC1=NCCc2c1[nH]c1cc(O)ccc21 | – | inactive
Cc1nn(C(C)(C)C)c(C)c1/C=N/OC(=O)Nc1ccc(Cl)c(Cl)c1 | – | active: 31.6 µM
O=C(O)c1ccccc1-c1c2cc(Br)c(=O)cc-2oc2[c]([Hg])c(O)c(Br)cc12 | inactive: 8.65% [at 25.7 µM] | –
C#CCN(C)C(C)Cc1ccccc1 (configuration not stated) | – | inactive
O=c1[nH]c2ccccc2n1CCCN1CCC(n2c(=O)[nH]c3cc(Cl)ccc32)CC1 | inactive: -1.34% [at 25.7 µM] | –
COc1cc2c(cc1OC)[C@@H]1C(=O)c3ccc4c(c3OC1CO2)CC(C(C)C)O4 (some centres not stated) | inactive: 11.7% | –
CC(C)CC(N(C)C)C1(c2ccc(Cl)cc2)CCC1 (configuration not stated) | inactive: 9.11% | –
